# Paper PMC4336329 (PLoS ONE, 2015)
# In all, about 310,000 compounds went through this assay and about 2,200 (0.71%) showed an effect of 50% or more. The effect is printed as a negative number. The list shows a part of the results.
# Molecular target: human ether-à-go-go-related gene (hERG) potassium channel (human, UniProt Q12809)
# Assay: primary screen, population patch clamp on CHO cells stably expressing hERG
# human ether-à-go-go-related gene (hERG) potassium channel, sequence (Q12809 whole entry, looked up): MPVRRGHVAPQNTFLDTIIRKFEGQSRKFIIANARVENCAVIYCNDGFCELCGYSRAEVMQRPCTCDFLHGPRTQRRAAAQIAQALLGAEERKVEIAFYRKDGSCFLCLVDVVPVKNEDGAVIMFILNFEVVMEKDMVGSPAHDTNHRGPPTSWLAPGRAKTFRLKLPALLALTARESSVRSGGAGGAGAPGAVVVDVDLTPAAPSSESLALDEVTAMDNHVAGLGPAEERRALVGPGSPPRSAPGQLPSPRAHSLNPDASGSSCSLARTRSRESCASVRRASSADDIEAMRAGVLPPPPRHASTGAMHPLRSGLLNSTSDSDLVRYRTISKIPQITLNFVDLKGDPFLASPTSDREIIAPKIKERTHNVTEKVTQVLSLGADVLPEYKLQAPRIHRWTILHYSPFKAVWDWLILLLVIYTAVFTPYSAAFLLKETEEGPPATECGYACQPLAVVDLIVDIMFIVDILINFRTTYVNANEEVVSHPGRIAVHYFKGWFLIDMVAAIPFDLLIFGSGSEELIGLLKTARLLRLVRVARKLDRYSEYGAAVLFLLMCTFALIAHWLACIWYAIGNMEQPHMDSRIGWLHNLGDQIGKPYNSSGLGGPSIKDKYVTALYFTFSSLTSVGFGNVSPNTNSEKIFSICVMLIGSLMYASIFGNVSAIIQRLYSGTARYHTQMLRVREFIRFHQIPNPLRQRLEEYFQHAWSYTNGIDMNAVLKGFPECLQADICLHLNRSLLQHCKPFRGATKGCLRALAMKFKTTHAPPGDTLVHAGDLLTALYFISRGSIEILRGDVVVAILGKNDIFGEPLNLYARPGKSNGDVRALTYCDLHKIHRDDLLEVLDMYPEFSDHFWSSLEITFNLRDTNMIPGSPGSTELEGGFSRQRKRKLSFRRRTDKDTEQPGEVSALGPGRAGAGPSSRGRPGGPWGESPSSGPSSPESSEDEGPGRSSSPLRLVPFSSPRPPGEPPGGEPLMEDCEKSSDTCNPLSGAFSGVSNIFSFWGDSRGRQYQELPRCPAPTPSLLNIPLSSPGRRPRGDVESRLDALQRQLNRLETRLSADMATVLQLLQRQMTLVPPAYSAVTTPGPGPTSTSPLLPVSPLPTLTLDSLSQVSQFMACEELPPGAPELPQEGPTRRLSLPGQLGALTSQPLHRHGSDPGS
row,SMILES,"hERG current change (%, negative = inhibition) at 1uM [%]"
1,COc1ccc(OC)c(CCNC(=O)CN2C(=O)COc3ccc(S(=O)(=O)N4CCOCC4)cc32)c1,9.3
2,COC(=O)C1=C(c2ccc(F)cc2F)C[C@@H]2CC[C@H]1N2C(=O)NC1CCCCC1,8.19
3,O=C(Cn1cnc2c(NC(=O)OCc3ccccc3)ncnc21)NCCN1CCOCC1,8.52
4,CCOc1ccc(Cn2nnc(C(=O)NCc3ccc(OC)cc3)c2N)cc1,12.1
5,C#CCOCCOCCOCCNc1nc(N2CCN(C(=O)[C@H](Cc3ccc(O)cc3)n3cc([C@@H](N)C(C)CC)nn3)CC2)nc(N2CCN(C(=O)[C@H](Cc3cc4ccccc4[nH]3)n3cc([C@@H](N)CC(C)C)nn3)CC2)n1.Cl (some centres unmarked),13.8
6,O=C(CN1c2ccccc2S(=O)(=O)c2ccccc21)Nc1ccccc1F,11.3
7,CCN(CC(=O)Nc1ccc(NC(C)=O)cc1)C(=O)CCCc1nc2ccccc2c(=O)[nH]1,11.7
8,Cn1nccc1C(=O)N1CCc2c([nH]c3ccccc23)C1c1ccc(F)cc1 (centres unmarked),20.7
9,O=C(COC(=O)Cc1ccc(F)cc1)NCCc1ccccc1,15.1
10,CC1(C(=O)[O-])CCCC2(C)c3cc(O)ccc3CCC12.[Ba+2] (centres unmarked),7.38
11,COc1cccc(-n2ccnc2SCC(=O)N2CCCc3ccccc32)c1,10.7
12,COCCN1CCN(Cc2nc(C3(c4ccc(C)cc4)CCCC3)no2)CC1,-0.947
13,CC(C)(C)c1cc(C(=O)N/N=C/c2ccncc2)n[nH]1,3.24
14,Cc1c(C(=O)NCC2CCCO2)sc2nc(-c3ccc(F)cc3)cn12 (centres unmarked),-4.15
15,O=C1CCC/C1=c1\s/c(=C\c2cccnc2)c(=O)n1-c1ccccc1,16.4
16,COCCNC(=O)C(NC(=O)C1CCCCC1)C(C)C (centres unmarked),9.72
17,Cc1ccc(/C=C/C(=O)NC(=S)N2CCN(C)CC2)cc1,-0.681
18,COc1ccc(C(C)=O)cc1CSc1ccc(S(=O)(=O)N2CCCCC2)cn1,8.35
19,COc1ccc(C2=NOC(C(=O)NCc3ccccn3)C2)cc1OC (centres unmarked),16.1
20,O=C(Nc1ccc(F)cc1)C1CC(=O)n2c(nc3ccccc32)N1 (centres unmarked),4.14
21,CCc1ccc(S(=O)(=O)NCC2(N3CCOCC3)CCCCC2)cc1,-5.83
22,CC(C)C(=O)Nc1cccc(NC(=S)NC(=O)C(c2ccccc2)c2ccccc2)c1,2.01

row,SMILES,"hERG current change (%, negative = inhibition) at 1uM [%]"
1,Cc1ccc(NC(=O)c2oc3ccccc3c2NC(=O)c2ccc3c(c2)OCO3)cc1,-7.6
2,COc1ccc(-c2cc(C(=O)NCc3ccco3)no2)cc1OC,-0.258
3,O=C(Cc1ccccc1)Nc1ccc(C(=O)O)cc1,-8.03
4,Cc1c(-c2nc(-c3cccnc3)no2)cccc1[N+](=O)[O-],3.16
5,CCC(Oc1ccccc1)C(=O)OCC(=O)Nc1sccc1C(N)=O (centres unmarked),11.5
6,COc1ccc(/C=C/C(=O)c2ccc(OC)cc2O)cc1,11.4
7,O=C(O)c1ccc(N/N=C2/CCCc3ccccc32)cc1.O=S(=O)(O)O,-1.94
8,COc1ccc(/C=N/NC(=O)Cn2c(Cc3ccc(OC)c(OC)c3)nc3ccccc32)cc1,7.62
9,CCOC(=O)N1CCC(N2C(=O)c3ccccc3C2Nc2c(C)cccc2C)CC1 (centres unmarked),-57.6
10,O=C(C1CCC(=O)N1Cc1ccccc1Cl)N1CCC2(CC1)OCCO2 (centres unmarked),-4.5
11,C=CCn1c(O)c(C(C)=NCC2CCCO2)c(=O)[nH]c1=O (centres unmarked),11.9
12,O=C(NC(c1ccccc1)c1ccccc1)C1(c2cccs2)CCOCC1,16.5
13,O=C(Nc1ccc2c(c1)OCO2)C1CCN(Cc2cnn(-c3ccccc3)c2-n2cccc2)CC1,-13.1
14,Cc1ccc(COc2cccc3c2CCN(Cc2ccc(F)cc2)C3=O)cc1,10.9
15,CN(CC(=O)OCC(N)=O)S(=O)(=O)c1ccc(Cl)cc1,16.4
16,COc1ccccc1Nc1ncnc2ccc(C)cc12,12.7
17,CCn1c(=O)c2c(n3c(=S)[nH]nc13)-c1ccccc1CC21CCCCC1,19.1
18,Oc1c(Br)cc(Br)cc1C=NCc1ccc(F)cc1,11.8
19,CN(C(=O)c1ccccc1Cl)c1ccccc1C(=O)NCCc1ccccc1,13.1
20,COc1cccc(OC)c1C(=O)OCCCOC(=O)c1c(OC)cccc1OC,16.5
21,COc1cc(C2NCCc3c2[nH]c2ccccc32)ccc1OC(C)C.Cl (centres unmarked),19.1
22,O=C(/C=C/c1cn(CC(O)CN2CCCCC2)c2ccccc12)c1cccs1 (centres unmarked),7.06

row,SMILES,"hERG current change (%, negative = inhibition) at 1uM [%]"
1,COCCNC(=O)C1CCCN(S(=O)(=O)c2cccc3nsnc23)C1 (centres unmarked),23.6
2,O=C(COc1cccc2ccccc12)N/N=C/C=C/c1ccccc1,3.49
3,COc1ccc(NC(=O)CSc2ccccc2)c(OC)c1,7.77
4,Cc1n[nH]c(=O)c2c(NC(=O)COC(=O)Cc3ccc(Cl)cc3Cl)oc(C)c12,2.98
5,COc1ccc(NC(=O)CSc2nnc(C)n2Cc2ccccc2)cc1,9.85
6,Cn1nc(-c2ccc(C(=O)O)cc2)c2ccccc2c1=O,11.6
7,Cc1ccc(NCCC(=O)c2ccccc2)cc1Cl,2.18
8,CCN(c1ccccc1)S(=O)(=O)c1ccc(OC)c(NC(=O)Cn2cnc3c2c(=O)n(C)c(=O)n3C)c1,-6.5
9,CCNC(=O)NC(=O)C(C)OC(=O)c1cccn1C (centres unmarked),10.7
10,CCOC(=O)c1c(NC(=S)NCc2ccccc2)sc2c1CCN(C(=O)OCC)C2,9.09
11,O=c1[nH]c(=O)n(CCC2=CCCCC2)c(O)c1C=NC1CCN(Cc2ccccc2)CC1,-26.4
12,CN(NC(=O)COc1ccccc1)c1ccccc1,9.41
13,CCN1CCC(NCC2CCCCC2)CC1,12.7
14,O=C(O)C1CCC(=O)N1C1c2ccccc2Oc2ccccc21 (centres unmarked),7.76
15,C/C(=N\NC(=O)c1cc(-c2ccc(Br)s2)[nH]n1)c1ccncc1,22.2
16,Cc1ccc(S(N)(=O)=O)cc1NC(=O)/C=C/c1ccc2c(c1)OCO2,4.18
17,CCOC(=O)c1cnc2ccc(Cl)cc2c1Nc1ccc(S(=O)(=O)Nc2ncccn2)cc1,6.94
18,CCC(C)[C@H](NC(=O)[C@@H]1Cc2ccccc2CN1)C(=O)Nc1ccc2c(c1)OCO2 (some centres unmarked),10
19,COc1cccc(C(C(=O)NC(C)(C)C)N(Cc2ccco2)C(=O)CCC(=O)Nc2cc(C)on2)c1OC (centres unmarked),13
20,COC(=O)c1ccc(CN2C(=O)NC3(CCCCC3C)C2=O)o1 (centres unmarked),4.3
21,CCOc1ccc(C(=O)NCC(=O)N2CC=C(c3ccccc3)CC2)cc1OCC,-30.3
22,CN(C)c1nc(N)nc(Cn2ccnc2)n1,-6.33

row,SMILES,"hERG current change (%, negative = inhibition) at 1uM [%]"
1,O=C(NCCN1CCOCC1)Nc1ccc(Cl)cc1Cl,0.106
2,CN(C)C(=O)CSc1nc(-c2ccccc2)c(-c2ccccc2)o1,11.1
3,COc1ccccc1CCc1nnc(CCC(=O)NC(C)Cc2cccc(C)n2)o1 (centres unmarked),11.2
4,CCC(C)C(NC(N)=O)C(=O)Nc1ccc(S(=O)(=O)Nc2ccc(OC)cc2)cc1 (centres unmarked),9.1
5,O=C(Nc1ccccc1)Nc1nncs1,4.35
6,COc1cc(CNCc2cccs2)ccc1OCc1cccs1.Cl,5.22
7,Cc1cc(=O)n2nc(-c3ccc(C(F)(F)F)cc3)sc2n1,9.84
8,CCOc1ccccc1C(=O)N1CCN(c2ccc(C(F)(F)F)cn2)CC1,12.5
9,COc1ccccc1N(CC(=O)Nc1c(C)n(C)n(-c2ccccc2)c1=O)S(=O)(=O)c1ccc(C)cc1,7.05
10,Cc1ccc(C(=O)Nc2c[nH]c(=O)[nH]c2=O)cc1,14.7
11,COc1ccc2c(c1)OC[C@H]1[C@H]2N2C(=O)c3cc(OC)c(OC)cc3NC(=O)[C@@]2(C)[C@H]1c1ccccc1,5.66
12,C/C(=N\Nc1nc2ccc(Cl)cc2o1)c1ccccc1,16.1
13,Cc1cc(NC(=O)Cc2ccccc2C)no1,10.2
14,O=c1oc2cc(OCCO)ccc2c2c1CCCC2,13.4
15,Cc1cccc(Nc2ccc(C(=O)N3CCOCC3)cn2)c1,17.3
16,O=C(COC(=O)CCCN1C(=O)c2cccc3cccc(c23)C1=O)Nc1ccc(Cl)cc1,13.7
17,Cc1ccc2[nH]c(=O)c(CN(CC3CCCO3)S(=O)(=O)c3c(C)ccc4nsnc34)cc2c1 (centres unmarked),-2.14
18,COc1ccc(C(=O)NCC(c2cccs2)N2CCc3ccccc32)cc1OC (centres unmarked),-4.47
19,CCn1c(=O)cc(N2CCN(C(=O)c3ccco3)CC2)[nH]c1=O,10.6
20,Cc1cccc(C)c1-n1c(C)nn(CCOc2ccccc2)c1=O,4.63
